Binding signal data for 37 sequences are collected here from publication PMC5700166.

The entries are a selection whose mix differs from that of the whole data set. The list includes weakly bound sequences.

The first experiment concerns the target T1, GST-Ap-NF-kB RHD (UniProt A0A913YAJ5).
T1 sequence: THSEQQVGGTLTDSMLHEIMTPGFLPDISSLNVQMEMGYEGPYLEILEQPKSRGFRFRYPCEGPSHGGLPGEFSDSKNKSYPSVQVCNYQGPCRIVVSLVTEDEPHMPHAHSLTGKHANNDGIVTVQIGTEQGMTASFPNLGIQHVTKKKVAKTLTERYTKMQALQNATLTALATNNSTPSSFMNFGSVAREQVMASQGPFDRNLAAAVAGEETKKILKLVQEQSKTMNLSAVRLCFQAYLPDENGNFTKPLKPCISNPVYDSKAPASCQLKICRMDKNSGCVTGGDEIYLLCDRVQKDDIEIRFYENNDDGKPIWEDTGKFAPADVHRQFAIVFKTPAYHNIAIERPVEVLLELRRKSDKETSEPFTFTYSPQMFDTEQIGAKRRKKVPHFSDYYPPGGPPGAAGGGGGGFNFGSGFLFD
Briefly: protein-binding microarray (PBM). The settings on record: PBM: ~300 nM protein, 6 mM HEPES pH 7.8, 80 mM KCl, 0.5 mM EDTA, 0.5 mM EGTA, 6% glycerol, 35 ng/ul poly-dIdC, 1% milk, 1 h, room temperature; high values mean tight binding; double strand, one strand shown.
Sequence “CCGATTAACATCAGAAAAATTCCTGATGTTAATCGGGTCTTGATTCGCTTGACGCTGCTG” showed a binding signal of -0.0948 z-score. The same measure, in the same setting: with “CCGATTAACATCAGGAAGGCCCCTGATGTTAATCGGGTCTTGATTCGCTTGACGCTGCTG” the figure was 2.9 z-score. Consider “CCGATTAACATCAGTAGTTTCCATGATGTTAATCGGGTCTTGATTCGCTTGACGCTGCTG”, for which the binding signal was -0.167 z-score.

Another experiment has as its target T2, GST-Nv-NF-kB (Cys allele) (UniProt E5G601).
T2 sequence: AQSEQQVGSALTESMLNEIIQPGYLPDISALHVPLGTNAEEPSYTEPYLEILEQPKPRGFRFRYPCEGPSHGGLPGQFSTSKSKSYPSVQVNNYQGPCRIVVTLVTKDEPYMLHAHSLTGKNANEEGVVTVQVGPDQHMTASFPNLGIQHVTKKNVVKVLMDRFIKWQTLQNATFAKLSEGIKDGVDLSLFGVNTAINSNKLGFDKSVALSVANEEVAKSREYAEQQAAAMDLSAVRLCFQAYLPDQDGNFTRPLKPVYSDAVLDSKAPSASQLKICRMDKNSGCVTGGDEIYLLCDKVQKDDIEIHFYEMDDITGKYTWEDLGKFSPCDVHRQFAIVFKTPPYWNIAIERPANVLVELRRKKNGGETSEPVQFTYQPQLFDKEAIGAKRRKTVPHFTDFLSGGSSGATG
As to the kind of experiment: protein-binding microarray (PBM). The settings on record: PBM: ~300 nM protein, 6 mM HEPES pH 7.8, 80 mM KCl, 0.5 mM EDTA, 0.5 mM EGTA, 6% glycerol, 35 ng/ul poly-dIdC, 1% milk, 1 h, room temperature; Ap Aiptasia and Nv Nematostella (sea anemones) / Co Capsaspora / Aq Amphimedon (sponge) / Dm Drosophila / Hu human; RHD is the Rel homology domain; high values mean tight binding; most listed sequences are background and not binding sites; double strand, one strand shown.
On to “CCGATTAACATCAGGAAAATACATGATGTTAATCGGGTCTTGATTCGCTTGACGCTGCTG”, for which the binding signal was -0.246 z-score. Still for that read-out and setting: with “CCGATTAACATCACGTAAAATCCTGATGTTAATCGGGTCTTGATTCGCTTGACGCTGCTG” the figure was -0.192 z-score; with “CCGATTAACATCACAAAATTCCATGATGTTAATCGGGTCTTGATTCGCTTGACGCTGCTG”, -0.694 z-score; with “CCGATTAACATCAGGAAAACACATGATGTTAATCGGGTCTTGATTCGCTTGACGCTGCTG”, 0.358 z-score. On to “CCGATTAACATCAAAAAAAGTACTGATGTTAATCGGGTCTTGATTCGCTTGACGCTGCTG”, for which the binding signal stood at 0.966 z-score. Consider “CCGATTAACATCAAATAATTTCCTGATGTTAATCGGGTCTTGATTCGCTTGACGCTGCTG”, for which the binding signal turned out to be 0.554 z-score. The same measure, in the same setting: under “CCGATTAACATCACGTATTTTCCTGATGTTAATCGGGTCTTGATTCGCTTGACGCTGCTG” stands 0.58 z-score; under “CCGATTAACATCACGTTTTTTCCTGATGTTAATCGGGTCTTGATTCGCTTGACGCTGCTG”, 0.0997 z-score.

For “CCGATTAACATCACGTAAACTCCTGATGTTAATCGGGTCTTGATTCGCTTGACGCTGCTG”, the binding signal was -0.711 z-score. The same measure, in the same setting: under “CCGATTAACATCAGAATTTCCTATGATGTTAATCGGGTCTTGATTCGCTTGACGCTGCTG” stands 0.118 z-score. “CCGATTAACATCAAAATTCCCCCTGATGTTAATCGGGTCTTGATTCGCTTGACGCTGCTG” had a binding signal of 11.6 z-score. “CCGATTAACATCATTTACATTCGTGATGTTAATCGGGTCTTGATTCGCTTGACGCTGCTG” had a binding signal of -0.175 z-score. On the same count and under the same terms, under “CCGATTAACATCAGTAAAATCCATGATGTTAATCGGGTCTTGATTCGCTTGACGCTGCTG” stands -0.266 z-score; under “CCGATTAACATCATGGTACTTGTTGATGTTAATCGGGTCTTGATTCGCTTGACGCTGCTG”, 0.141 z-score; under “CCGATTAACATCAAGTTTTTTCCTGATGTTAATCGGGTCTTGATTCGCTTGACGCTGCTG”, 0.696 z-score. Still for that read-out and setting: under “CCGATTAACATCAGGAAAAATACTGATGTTAATCGGGTCTTGATTCGCTTGACGCTGCTG” stands 0.583 z-score; under “CCGATTAACATCAAAAATTCCCCTGATGTTAATCGGGTCTTGATTCGCTTGACGCTGCTG”, 12.8 z-score; under “CCGATTAACATCAAGTAATTTTCTGATGTTAATCGGGTCTTGATTCGCTTGACGCTGCTG”, 0.124 z-score. Sequence “CCGATTAACATCAAGTATTTTCCTGATGTTAATCGGGTCTTGATTCGCTTGACGCTGCTG” gave a binding signal of 0.183 z-score.

On to “CCGATTAACATCACCTCTCGCGCTGATGTTAATCGGGTCTTGATTCGCTTGACGCTGCTG”, for which the binding signal was -0.207 z-score. Sequence “CCGATTAACATCAGTGGTACTTGTGATGTTAATCGGGTCTTGATTCGCTTGACGCTGCTG” returned a binding signal of 0.241 z-score. On the same count and under the same terms, with “CCGATTAACATCAGGAAAAACACTGATGTTAATCGGGTCTTGATTCGCTTGACGCTGCTG” the figure was 0.431 z-score; with “CCGATTAACATCAGCGGAATTCCTGATGTTAATCGGGTCTTGATTCGCTTGACGCTGCTG”, 0.934 z-score; with “CCGATTAACATCACGTACATTCCTGATGTTAATCGGGTCTTGATTCGCTTGACGCTGCTG”, -0.815 z-score. The same measure, in the same setting: with “CCGATTAACATCAGTGTGCTTCTTGATGTTAATCGGGTCTTGATTCGCTTGACGCTGCTG” the figure was -0.0977 z-score; with “CCGATTAACATCAGTTTTTTCCATGATGTTAATCGGGTCTTGATTCGCTTGACGCTGCTG”, 0.894 z-score; with “CCGATTAACATCAGGCAAGTCCCTGATGTTAATCGGGTCTTGATTCGCTTGACGCTGCTG”, 3.87 z-score. Take “CCGATTAACATCAGGAAAGTCCATGATGTTAATCGGGTCTTGATTCGCTTGACGCTGCTG”: the binding signal worked out at 0.596 z-score. On the same count and under the same terms, under “CCGATTAACATCAAAATTTACCATGATGTTAATCGGGTCTTGATTCGCTTGACGCTGCTG” stands 0.863 z-score. Take “CCGATTAACATCAAGGCAATTCCTGATGTTAATCGGGTCTTGATTCGCTTGACGCTGCTG”: the binding signal is -0.0443 z-score. Still for that read-out and setting: with “CCGATTAACATCAGAAATTCCCCTGATGTTAATCGGGTCTTGATTCGCTTGACGCTGCTG” the figure was 12.3 z-score; with “CCGATTAACATCACGTGTTTTCCTGATGTTAATCGGGTCTTGATTCGCTTGACGCTGCTG”, 0.172 z-score; with “CCGATTAACATCACTGGAATTCCTGATGTTAATCGGGTCTTGATTCGCTTGACGCTGCTG”, 0.747 z-score. On to “CCGATTAACATCAGTACATTCCATGATGTTAATCGGGTCTTGATTCGCTTGACGCTGCTG”, for which the binding signal is -1.53 z-score.
